# Test results reported in paper PMC4336329 (PLoS ONE, 2015).
# In all, about 310,000 compounds went through this assay and about 2,200 (0.71%) showed an effect of 50% or more. The effect is printed as a negative number. This is one part of the list.
# Target: human ether-à-go-go-related gene (hERG) potassium channel (human, UniProt Q12809)
# Experiment: primary screen, population patch clamp on CHO cells stably expressing hERG
# Chain of human ether-à-go-go-related gene (hERG) potassium channel (Q12809 whole entry, looked up): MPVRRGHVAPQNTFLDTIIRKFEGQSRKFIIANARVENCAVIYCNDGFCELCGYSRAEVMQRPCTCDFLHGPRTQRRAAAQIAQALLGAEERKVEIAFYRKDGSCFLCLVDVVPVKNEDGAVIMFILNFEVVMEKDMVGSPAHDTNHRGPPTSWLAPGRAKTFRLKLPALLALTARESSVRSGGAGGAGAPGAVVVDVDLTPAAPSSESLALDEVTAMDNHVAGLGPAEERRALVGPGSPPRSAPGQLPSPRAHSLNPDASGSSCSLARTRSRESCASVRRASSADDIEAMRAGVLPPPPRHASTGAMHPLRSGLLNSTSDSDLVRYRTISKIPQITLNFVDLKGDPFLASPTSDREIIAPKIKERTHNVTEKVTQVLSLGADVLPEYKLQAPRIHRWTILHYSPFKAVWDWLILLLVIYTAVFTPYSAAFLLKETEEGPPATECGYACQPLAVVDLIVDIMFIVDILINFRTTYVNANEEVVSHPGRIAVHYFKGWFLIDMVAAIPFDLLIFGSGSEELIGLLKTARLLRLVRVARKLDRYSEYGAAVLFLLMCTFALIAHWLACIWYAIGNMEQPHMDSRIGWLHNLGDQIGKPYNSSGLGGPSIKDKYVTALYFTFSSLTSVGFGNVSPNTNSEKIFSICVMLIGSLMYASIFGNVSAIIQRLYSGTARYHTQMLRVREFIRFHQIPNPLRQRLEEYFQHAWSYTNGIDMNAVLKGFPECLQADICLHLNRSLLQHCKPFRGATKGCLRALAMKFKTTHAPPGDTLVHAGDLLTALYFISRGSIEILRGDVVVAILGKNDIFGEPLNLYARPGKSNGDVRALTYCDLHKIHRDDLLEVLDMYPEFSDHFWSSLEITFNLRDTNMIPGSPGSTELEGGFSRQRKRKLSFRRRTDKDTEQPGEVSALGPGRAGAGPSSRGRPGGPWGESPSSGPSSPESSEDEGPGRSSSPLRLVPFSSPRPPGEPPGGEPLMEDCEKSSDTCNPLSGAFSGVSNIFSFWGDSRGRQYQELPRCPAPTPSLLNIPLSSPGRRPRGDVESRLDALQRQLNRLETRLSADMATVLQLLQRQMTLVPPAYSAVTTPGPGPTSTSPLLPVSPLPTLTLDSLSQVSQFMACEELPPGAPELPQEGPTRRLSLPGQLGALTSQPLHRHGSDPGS
row,Structure (SMILES),"hERG current change (%, negative = inhibition) at 1uM [%]"
1,COc1ccc(C(=O)C2CCN(C(=S)Nc3ccc(F)cc3)CC2)cc1,-6.05
2,O=C(CCS(=O)(=O)c1ccc(Br)cc1)Nc1ccccc1Cl,15.9
3,Nc1nnc(COc2cccc(C(F)(F)F)c2)s1,7.33
4,Cc1ccc(CNC(=O)COC(=O)Cn2nc(C)c([N+](=O)[O-])c2C)cc1,5.2
5,CN(CC(=O)NCc1ccccc1Cl)S(=O)(=O)c1ccc2c(c1)n(C)c(=O)c(=O)n2C,10.1
6,COc1ccc(CN2CCNC(=O)C2CC(=O)N(C)Cc2nccn2C)cc1OC (stereo not shown),11
7,O=C1C(c2ccncc2)=C(O)c2ccccc21,6.68
8,CC(C)(C)NC[C@@H](O)COc1cccc2c1CCCC2=O.Cl,2.24
9,Cn1/c(=N/N=C/c2ccc(N3CCOCC3)cc2)sc2ccccc21,-8.84
10,O=C(Nc1cccnc1)c1cccc([N+](=O)[O-])c1,8.65
11,CCn1c(C)c(C)c2cc(C(=O)NCCCN3CCCCC3)ccc21,5.47
12,CCOC(=O)C1CCN(Cc2cc(C(C)C)c(O)c(C(C)C)c2)CC1,-3.27
13,CCOc1ccc(-n2c(SCC(N)=O)nc3c(c2=O)SCC3)cc1,8.48
14,Cl.O=C(CN1CCOCC1)NCC12CC3CC(CC(C3)C1)C2,9.11
15,S=c1[nH]nc(-c2ccccc2)n1Cc1ccccc1,11.7
16,Cc1ccc(C(=O)Nc2ccc3c(c2)CCC3)o1,-9.43
17,Cc1cccc(-n2ncc3c(NCCCn4ccnc4)ncnc32)c1,3.9
18,O=[N+]([O-])/C=C1\C=CC=CN1Cc1ccc(Cl)cc1,3.51
19,CCOc1ccc(C(O)(c2ccccc2OC)C(CN2CCCC2)c2ccccc2)cc1.Cl (stereo not shown),10.3
20,COc1ccc(Br)cc1/C=N/n1c(COc2ccccc2)n[nH]c1=S,11
21,COc1ccc(Cl)cc1NS(=O)(=O)c1cccc(C(=O)NCC2CCCO2)c1 (stereo not shown),5.12
22,CCOc1ccc(NC(=O)CN2CCCC2c2cccs2)cc1S(=O)(=O)N1CCCCC1 (stereo not shown),4.55

row,Structure (SMILES),"hERG current change (%, negative = inhibition) at 1uM [%]"
1,CCOC(=O)c1sc(S(C)=O)c2c1CCc1conc1-2 (stereo not shown),2.38
2,COc1ccc(N=C2SC(CC(=O)Nc3ccccc3)C(=O)N2CCN2CCOCC2)cc1 (stereo not shown),3.66
3,Nc1ccc(Cl)cc1/C(=N/O)c1ccccc1,9.73
4,CCOc1ccc(C(=O)OCn2nnc3ccccc3c2=O)cc1OC,12
5,CC(=O)C1=C(C)NC(SCC(=O)c2ccc(Cl)cc2)=C(C#N)C1CC(C)C (stereo not shown),7.52
6,Nc1nc(SCC(=O)c2cccs2)n[nH]1,6.15
7,CCCc1cc(=O)[nH]c(SCc2ccc(F)cc2)n1,10.1
8,Cc1nc(C)c(CCNC(=O)c2ccccc2)s1,16.6
9,CCOC(=O)c1sc(NC(=O)/C=C/c2cnn(C)c2C)c(C(=O)OCC)c1C,8.05
10,CCOC(=O)c1sc(/N=C/N(C)C)nc1C,13
11,CCOC(=O)N1CCC(N2CCN(Cc3ccc(C)o3)C(CCO)C2)CC1 (stereo not shown),10
12,CNC(=O)CC1C(=O)N(c2ccc(OC)cc2)C(=S)N1NC(=O)c1cccc(F)c1 (stereo not shown),12.3
13,O=C(CCS(=O)(=O)c1ccc(Br)cc1)NCc1ccc(F)cc1,18.8
14,CCOc1ccc(NC(=S)NCCCn2ccnc2)cc1,12.1
15,O=C(COc1ccc(/C=N/NS(=O)(=O)c2ccccc2)cc1)Nc1ccccc1,6.11
16,COc1ccc(NC(=O)CSc2nnc(-c3ccccn3)n2-c2ccccc2)cc1OC,8.98
17,COc1ccc(CNC(=O)CN(C)S(=O)(=O)c2ccc3c(c2)n(C)c(=O)c(=O)n3C)cc1,12
18,CCOC(=O)NC(Nc1sc2c(c1C(N)=O)CCCC2)(C(=O)OCC)C(F)(F)F (stereo not shown),3.99
19,CSc1ccc(C(=O)/C=C/c2ccc(N)cc2)cc1,14
20,CCCCOC(=O)NC(NCC(O)c1ccccc1)(C(F)(F)F)C(F)(F)F (stereo not shown),7.67
21,CCCCC(=O)OCC(=O)N1N=C(c2c[nH]c3ccccc23)C(O)C1c1ccc(OC)cc1 (stereo not shown),9.42
22,CCNS(=O)(=O)c1ccc(C(=O)OCC(=O)N2CCCc3ccccc32)cc1,-12.4

row,Structure (SMILES),"hERG current change (%, negative = inhibition) at 1uM [%]"
1,CC1(c2ccc(OC(F)F)cc2)NC(=O)N(CC(=O)NCCC2=CCCCC2)C1=O (stereo not shown),1.63
2,Cc1cc(Cl)c(OCCCN(C)C)c(Br)c1.O=C(O)C(=O)O,-0.159
3,Fc1ccc(-c2nc(-c3cccs3)[nH]c2-c2ccc(F)cc2)cc1,1.79
4,N#CCCN(Cc1cccnc1)C(=O)Nc1ccccc1,0.734
5,CC1(C)CC(=O)C2=C(C1)N=C1SCCC(=O)N1C2c1cccc([N+](=O)[O-])c1 (stereo not shown),-6.8
6,COc1cc(OC)cc(C(=O)NC(=S)NNC(=O)Cc2cccs2)c1,14.5
7,CCOc1ncccc1C(=O)NCCc1ccc(S(N)(=O)=O)cc1,9.47
8,CC(C)C1N(C(=O)CN2CCCCC2)CCN1S(=O)(=O)c1ccccc1 (stereo not shown),11.8
9,COC(=O)C1=C(C)N(CCCC(=O)O)C(=O)NC1c1ccc(C(F)(F)F)cc1 (stereo not shown),2.9
10,CCOC(=O)N/N=C/c1c(C)nn(-c2cccc(C(F)(F)F)c2)c1Cl,1.3
11,COC(CNC(=O)CC1C(=O)N(Cc2ccccc2)C(C)c2nc3ccccc3n21)OC (stereo not shown),5.23
12,CCN1CCN(C(=O)Cn2cnc3sc(C)c(S(=O)(=O)N4CCN(c5ncccn5)CC4)c3c2=O)CC1,12.4
13,Cc1ccc(C)c(OCc2cc(C(=O)N3CCN(c4ccccc4C)CC3C)no2)c1 (stereo not shown),6.82
14,Cc1cccc(NS(=O)(=O)c2cccc(C(=O)NCc3ccccc3CN3CCOCC3)c2)c1,-4.3
15,Cc1ccsc1/C=C1\Oc2cc(OCC(=O)c3ccccc3)ccc2C1=O,9.53
16,C=CCn1c(SCC(=O)N2CCc3ccccc3C2)nc2sc(C)c(C)c2c1=O,7.56
17,Cc1nn(C(C)C(=O)Nc2ccccc2Cl)c(=O)c2nn(-c3ccccc3)c(C)c12 (stereo not shown),3.8
18,CCC(C)c1ccc(OCCN2CCCC2)cc1 (stereo not shown),-0.789
19,O=C(NCCc1c[nH]c2ccccc12)C(=O)NCC(c1ccco1)N1CCN(c2ccc(F)cc2)CC1 (stereo not shown),10.1
20,CCCN1C(=O)c2cc(C(=O)Nc3ccccc3CC)ccc2C1O (stereo not shown),8.47
21,COc1cccc(CNC(=O)C2CCCN(c3nc4ccccc4o3)C2)c1 (stereo not shown),-7.68
22,O=C(N/N=C/c1ccccc1F)c1cccc(NC(=O)c2ccccc2Cl)c1,12.5

row,Structure (SMILES),"hERG current change (%, negative = inhibition) at 1uM [%]"
1,C=CCN1C(=O)NC(=O)/C(=C/c2cc3c4c(c2)CCCN4CCC3)C1=O,-8.47
2,N#Cc1ccccc1OCC(=O)Nc1ccc2c(c1)OCCCO2,6.91
3,COc1ccc(N(C)S(=O)(=O)c2cccc3nsnc23)cc1,15.6
4,O=C(CSc1nnc(CNC(=O)c2ccco2)o1)Nc1ccc(Br)cc1,1.05
5,COc1ccccc1-c1noc(CCC(=O)NC2CCCC2)n1,15.2
6,COc1ccc(/C(N)=N/OC(=O)c2ccc(C)c([N+](=O)[O-])c2)cc1OC,15.6
7,Cc1ccc(NC(=O)CSc2n[nH]c(-c3cccnc3)n2)cc1Cl,3.82
8,COc1cc([N+](=O)[O-])cc(/C=N/NC(=O)C(C)Nc2ccccc2C)c1O (stereo not shown),19.3
9,O=C(Nc1ccc2c(c1)CCC2)c1ccccc1Br,2.99
10,O=[N+]([O-])c1ccc2c(c1)C(O)n1nc(-c3ccccc3)nc1S2 (stereo not shown),14.3
11,Cc1cc(=O)oc2cc(NC(=S)NCc3ccccn3)ccc12,5.98
12,Cc1ccc2nc(SCC(=O)N/N=C/c3ccco3)cc(C)c2c1,9.47
13,O=P(O)(CCc1ccccn1)CN1CCOCC1,7.57
14,Cc1ccc(Cn2nnnc2CN2CCC(O)(c3ccc(F)cc3)CC2)cc1,10.2
15,COc1cc(C(=O)Nc2scc(-c3ccc(C)cc3)c2C(=O)O)cc(OC)c1OC,19.6
16,COc1ccc(Nc2c(-c3ccc(C)cc3)nc3cnccn23)cc1,-3.17
17,COc1ccccc1NC(=O)CSc1nccn1Cc1ccccc1,5.23
18,CCN1CCN(c2ccc(N3CCN(C(=O)c4ccc(Br)o4)CC3)nn2)CC1,-38.3
19,O=C(CC1C(=O)NCCN1C(=O)c1ccc(Cl)cc1)Nc1ccc(F)cc1 (stereo not shown),-1.98
20,N#CCCn1cc(C(=O)Nc2ccc([N+](=O)[O-])cc2)c(-c2cccs2)n1,-15.8
21,CC(=O)NC(NC(C)=O)c1cccc(OCc2ccccc2)c1,9.62
22,Cc1cccc(/N=C/c2ccccn2)n1,3.77
